According to paper PMC4336329 (PLoS ONE, 2015):
The whole screen tested about 310,000 compounds, of which about 14,000 (4.5%) showed an effect of 50% or more. Effects have a minus sign here. Some of the results follow.

target: human ether-à-go-go-related gene (hERG) potassium channel (human, UniProt Q12809); experiment: primary screen, population patch clamp on CHO cells stably expressing hERG
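Note: peak tail current of the secondary pulse compared with the same well before compound.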

human ether-à-go-go-related gene (hERG) potassium channel, sequence (Q12809 whole entry, looked up): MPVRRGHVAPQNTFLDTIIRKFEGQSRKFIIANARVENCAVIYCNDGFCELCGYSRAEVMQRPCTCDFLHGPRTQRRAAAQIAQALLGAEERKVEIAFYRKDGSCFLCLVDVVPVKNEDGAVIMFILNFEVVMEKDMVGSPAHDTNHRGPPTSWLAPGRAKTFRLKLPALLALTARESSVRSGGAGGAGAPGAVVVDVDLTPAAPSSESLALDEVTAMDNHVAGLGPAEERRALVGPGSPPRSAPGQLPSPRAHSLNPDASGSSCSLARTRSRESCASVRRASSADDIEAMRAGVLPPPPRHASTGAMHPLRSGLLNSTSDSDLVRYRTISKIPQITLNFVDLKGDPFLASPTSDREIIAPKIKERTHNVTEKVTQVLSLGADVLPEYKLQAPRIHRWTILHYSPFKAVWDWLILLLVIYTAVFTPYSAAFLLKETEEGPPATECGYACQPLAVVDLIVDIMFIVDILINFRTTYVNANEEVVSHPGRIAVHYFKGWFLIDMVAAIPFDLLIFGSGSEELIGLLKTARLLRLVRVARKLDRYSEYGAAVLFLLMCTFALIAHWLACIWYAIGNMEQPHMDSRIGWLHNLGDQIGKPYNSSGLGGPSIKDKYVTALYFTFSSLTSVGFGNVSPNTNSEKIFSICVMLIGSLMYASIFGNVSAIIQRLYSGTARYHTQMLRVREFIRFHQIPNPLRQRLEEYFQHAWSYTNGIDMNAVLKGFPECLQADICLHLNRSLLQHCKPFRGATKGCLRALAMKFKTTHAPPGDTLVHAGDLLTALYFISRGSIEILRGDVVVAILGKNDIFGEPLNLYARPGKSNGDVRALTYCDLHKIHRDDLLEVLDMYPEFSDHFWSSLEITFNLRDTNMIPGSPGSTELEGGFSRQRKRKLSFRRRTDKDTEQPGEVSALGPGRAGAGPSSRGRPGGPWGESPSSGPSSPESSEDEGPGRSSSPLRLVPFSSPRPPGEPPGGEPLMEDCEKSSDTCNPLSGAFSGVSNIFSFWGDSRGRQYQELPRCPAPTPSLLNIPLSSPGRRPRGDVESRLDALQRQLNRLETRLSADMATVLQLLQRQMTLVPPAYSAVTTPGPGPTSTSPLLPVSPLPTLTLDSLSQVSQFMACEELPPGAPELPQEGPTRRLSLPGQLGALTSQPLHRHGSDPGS

SMILES | hERG current change (%, negative = inhibition) at 10uM [%]
CC(OC(=O)c1ccccc1Nc1ccc(SC(F)F)cc1)C(N)=O (stereo not drawn) | -34
CCOC(=O)c1c(/N=C/N(C)C)sc(C=O)c1-c1ccccc1 | 5.75
CCCS(=O)(=O)Nc1c(C(=O)O)[nH]c2ccc(OC)cc12 | 1.44
O=C(Nc1ccc(Cl)cc1)C1CC2CCCC(C1)C2=O (stereo not drawn) | -15.6
Cc1cccc(C)c1NC(=S)NN(Cc1ccccc1)c1ccccc1 | 11.6
CC1CCCCN1C(=O)CSc1nc(C2CC2)nc2c1cnn2-c1ccccc1 (stereo not drawn) | 16.9
CCc1ccc(OCC(=O)Nc2ccc3[nH]ncc3c2)cc1 | -7.38
CC1(C)CC(=O)N(CC(=O)N2CCN(c3ncccn3)CC2)c2ccccc2S1(=O)=O | -5.14
CSc1nnc(C)c(=O)n1COC(=O)COc1ccccc1C | -2.1
C=COCCn1c(C)c(C(C)=O)c2cc(O)ccc21 | 7.27
C/C(=N\Nc1ccc2nncn2n1)c1ccc(Br)s1 | 6.83
Cc1ccc(NNC(=O)c2c(F)cccc2Cl)cc1C | 4.71
C[C@H](NC(=O)OC(C)(C)C)C(=O)N/N=C/c1cccc2nccnc12 | 8.37
Oc1ccc(N=Nc2ccc3c(c2)OCO3)c2ccccc12 | -6.41
CC(=O)c1ccc2noc(-c3ccc(F)cc3)c2c1 | 2.15
CCOc1ccc(NS(=O)(=O)c2ccc(-c3coc(C)n3)cc2)cc1 | 24.3
Cc1ccc(Oc2ccc(OCC(=O)NC(C)C(=O)O)cc2)cc1 (stereo not drawn) | -25.1
NS(=O)(=O)c1ccc(NC(CNS(=O)(=O)c2ccccc2)c2ccccc2)cc1 (stereo not drawn) | 36.8
Cc1nn(Cc2cccc(C(=O)NC34CC5CC(CC(C5)C3)C4)c2)c(C)c1Br | 5.43
CN(c1ccc(C(=O)N2CCOCC2)cc1)S(=O)(=O)c1cccs1 | 29
CC1(C)Cc2c(sc(NC(=O)C(=O)N3CCCCC3)c2C(N)=O)CO1 | 18.3
O=C(CN1C(=O)NC2(CCCCCC2)C1=O)Nc1ccc2c(c1)CCC2 | -5.72
O=[N+]([O-])c1cccc(NC2=NCCC2)c1 | 2.79

SMILES | hERG current change (%, negative = inhibition) at 10uM [%]
Cc1cc(S(=O)(=O)NCCc2ccccc2)c(C)s1 | -17.4
NC(=O)C(C(=O)/C=C/c1ccc(Cl)cc1)=C1SCCS1 | 0.52
O=c1[nH]c(=O)c2ncc(-c3ccc(Cl)cc3)nc2[nH]1 | 6.87
CCC(C)Oc1cccc(C(=O)Nc2ccccc2N2CCOCC2)c1 (stereo not drawn) | -4.01
Cc1ccc(C(=O)N2CC(C)OC(C)C2)cc1[N+](=O)[O-] (stereo not drawn) | 7.89
CCCN(CCC)S(=O)(=O)c1cc2c3c(c1)CCN3C(=O)CC2 | -26.6
COc1ccc(CCNC(=S)Nc2cccc(C)c2)cc1 | -8.64
O=C(COC(=O)c1ccc(Cl)s1)c1cc2ccccc2o1 | -18.4
Cc1ccc2oc(=O)c(/C=C(\O)c3ccccc3)nc2c1 | -5.21
CC(CCN1CCC(n2nccc2NC(=O)c2ccccc2Cl)CC1)c1ccccc1 (stereo not drawn) | -82.7
COc1cc2[nH]c(C(=O)N3CCc4ccccc4C3)cc2c(OC)c1OC | -21.4
Nc1nonc1N/N=C/c1c(O)ccc2ccccc12 | 21.3
O=S(=O)(NCc1ccc2c(c1)OCO2)c1ccc2c(c1)oc1ccccc12 | 11.2
COc1ccc(-n2c(C)nnc2SCC(=O)N2CCOCC2)cc1 | 13.7
O=C(OCC(=O)N1CCN(C(=O)c2ccco2)CC1)c1cc(-c2ccccc2)nc2ccccc12 | -60.3
O=C(NC1CCCCC1)N1CCCC(c2nc(-c3cccs3)no2)C1 (stereo not drawn) | -10.5
COc1ccc(-n2cc(CN[C@H]3CCCCNC3=O)c(-c3cccc(F)c3)n2)cc1 | -64.1
CSc1nnc(-c2cccn(Cc3cccc(Cl)c3)c2=O)o1 | -11.2
Cc1ccc(Cl)cc1N1CCN(C(=O)c2ccc(CS(=O)Cc3ccc(Cl)cc3)o2)CC1 (stereo not drawn) | 13.9
COc1ccccc1-c1c(C)nn2c(N)c(-c3ccc(Cl)cc3)cnc12 | 27
COc1ccc(COC(=O)CCS(=O)(=O)c2ccc(C)cc2)cc1 | 12.6
CCN1CCN(C(C(=O)NC2CCCCC2)c2ccc(Cl)cc2)CC1 (stereo not drawn) | -21.7
